# Reference: the supplement of paper PMC3334620
# Whole data set: some 33,000 sequences, median “E-score (-0.5 to 0.5)” near -0.054, cut for the highest 2% near 0.39. The list shows a part of the results.
# Target: Ylr278c (UniProt Q05854)
# Assay: PBM E-score (8-mer binding enrichment) (E-score (-0.5 to 0.5)); higher = stronger / more preferred TF binding; most listed sequences are background and not binding sites
# Details: protein concentration: 200 nM; construct: GST-DNA-binding domain
# Outline: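 Yeast transcription factors, full-length or as DNA-binding domains, were expressed with a GST tag using PURExpress in vitro transcription/translation. At about 100-200 nM they were applied to universal all-10-mer Agilent arrays, double-stranded by primer extension on fresh or once-stripped slides. Fluorescent anti-GST detected bound protein, and masliner normalised the scans. E-scores for ungapped eight-base words, pooled with reverse complements, came from the Universal PBM Analysis Suite.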
row,Sequence,PBM E-score
1,ATTAACTG,-0.0682
2,GATAATGC,-0.0424
3,CGTGACGC,-0.0619
4,CAAACCCC,0.217
5,AATCAGCT,-0.182
6,AACAGCGT,0.00076
7,CGAATAAA,0.142
8,CGAGGCAA,-0.0308
9,TCACTCGA,-0.233
10,AGGCACAG,-0.228
11,ATCGGTAA,0.2
12,AGCCTTGA,-0.153
13,AGTTGCTA,0.0917
14,CAGACACA,-0.118
15,CTAGGGTC,-0.308
16,CACGGGCG,0.225
17,GCTGGCCA,-0.0154
18,CCTACTTA,-0.163
19,ACAGACAA,0.105
20,AGACGGGC,0.089
21,AAGTCTCT,-0.303
22,ATCTACAG,-0.0146
23,CAATGTGA,-0.225
24,GAGCTCAC,-0.0998
25,ACGGATTC,0.246

row,Sequence,PBM E-score
1,TATGCGGA,0.358
2,CGCACGCA,0.0589
3,CAGGGACA,-0.0712
4,GTATTTCA,-0.175
5,AGCTCGGA,0.322
6,CACCCCAC,-0.0134
7,AGTGTTGG,0.034
8,GAGGCGCC,0.0297
9,CGTTGTTA,0.012
10,CGAGTACG,-0.0729
11,CAACTACG,-0.00049
12,TAGGAAGA,-0.224
13,AAATATCG,0.152
14,CGCTGGGA,-0.0721
15,ACCAAGGT,-0.0132
16,TCTGTAAA,0.0808
17,ACCATCCT,-0.31
18,ACTCAACA,-0.134
19,GGACCGCA,0.238
20,CGTGAGGA,-0.0251
21,CTTACCGC,0.167
22,AGACGCAG,-0.164
23,CTACCAAC,-0.134
24,AGTTACCC,0.0239
25,GCCAATGA,-0.237

row,Sequence,PBM E-score
1,GACGCTGC,0.0259
2,ACTAAAGA,-0.145
3,CAGTTTTA,-0.16
4,ACCCTAGA,-0.268
5,CAGTCCAC,-0.265
6,CCAGGTAG,-0.135
7,ATCAGGAT,-0.018
8,CTTCAAAG,-0.164
9,ATGTACAG,-0.13
10,CAATTCGA,-0.192
11,GCTTATCC,0.136
12,CGACGTAG,-0.05
13,ATGTCCAG,-0.142
14,AGAGATGC,-0.0846
15,ATCCGGAT,0.452
16,ATCCGGTA,0.294
17,AGAATTTC,0.0325
18,ACCGTACG,-0.186
19,GGATCGAC,0.174
20,ACAACCCT,-0.188
21,ATTTGAAA,-0.0475
22,ACATCAAA,0.0163
23,CCAAAGGA,-0.218
24,CACCGGCG,0.383
25,AATACTGT,-0.00119

row,Sequence,PBM E-score
1,AACCTGAT,-0.222
2,CCAGCTTA,-0.153
3,AATATAAG,0.0801
4,GGCAGAGA,-0.0217
5,TGACGCAA,-0.115
6,AACTGCAT,-0.156
7,ACGAATCA,-0.124
8,CGGCCATC,0.194
9,AATATGCT,-0.0879
10,CAATCCTC,-0.124
11,AGTGGGGG,-0.151
12,AGAAGTTG,-0.264
13,TAATGTGA,-0.177
14,ATGGAGCC,-0.299
15,CAAGGCAC,-0.23
16,GTAGTTCA,0.05
17,CCCCGGGC,0.342
18,CTGTGGAC,-0.27
19,TATAAGCA,-0.0654
20,GTACCTGA,-0.142
21,AAGCACTG,-0.138
22,AACTCCTA,0.23
23,AGATATTG,-0.0174
24,GAGGACTC,-0.226
25,CCGTTTGC,0.193

row,Sequence,PBM E-score
1,CAAATCGA,-0.268
2,ATACGTTC,-0.26
3,GGTGCTTA,-0.154
4,ACTCTATC,-0.00278
5,GACGCCGC,0.256
6,ACCCGGCA,0.174
7,CCGCAATA,0.195
8,CAACAAAG,-0.189
9,ACAGTACG,-0.0602
10,GATACGAA,-0.168
11,ATGCGCAT,0.0738
12,CGATGAGC,0.0322
13,AATAGTAC,-0.0477
14,ATCGGGCG,0.241
15,CGTTTGAA,-0.0173
16,CGTACGAG,-0.0678
17,GCGTGAAC,-0.166
18,CTATGAAG,-0.176
19,AAGGTGGC,-0.103
20,GCTCTGTA,-0.213
21,AGTAAAAA,0.0348
22,AGTAGGGA,-0.143
23,CTACGCTC,-0.0331
24,ATCTCCTC,0.0398
25,AATGAACC,-0.218

row,Sequence,PBM E-score
1,ACCACCGT,-0.0984
2,AATATTCC,0.357
3,ACGGGGGG,-0.256
4,AGCCTCAC,-0.252
5,CCGAATGA,0.221
6,CGGCGCAC,0.269
7,ATTTTGCG,0.0406
8,GCGCCCCC,-0.0778
9,CCGTCGAG,0.115
10,AAATAATT,0.114
11,AAGGGTTA,-0.15
12,AGAAGTCA,-0.0826
13,ATACTGTC,-0.111
14,AGGCGCGC,0.0748
15,CTCCTGCA,-0.217
16,AGAGAACG,-0.231
17,ATGTTTAA,-0.211
18,CGACAGAA,0.0827
19,ACAAAGGG,-0.121
20,CGGCTACG,0.187
21,GAGTCTAA,-0.119
22,CATCCGAG,0.193
23,GGCACACA,-0.0291
24,CGTGTTAA,-0.223
25,GCTTTCAA,-0.0643

row,Sequence,PBM E-score
1,CGTGCCAC,-0.153
2,ATTGCTAG,-0.0899
3,ACAGGCTC,-0.238
4,GGAGCTCA,0.0409
5,CGGTTCAA,0.127
6,GGGGTAAC,-0.104
7,AGCGTGGA,-0.0895
8,GCCAGGGA,-0.212
9,ATCACAAA,-0.118
10,CACAGCCG,0.171
11,AGTCCTTA,-0.226
12,CCGTTAAA,0.0608
13,CTCAGAAC,-0.156
14,AACATCGA,-0.198
15,CAGGTCGG,0.0287
16,ACCACTTA,-0.0492
17,GCAGGAGA,0.0544
18,CTATCCGC,0.215
19,GACCCAGC,-0.272
20,CTTATTGA,-0.0634
21,ATACTACG,-0.017
22,CAGCCATC,-0.149
23,AGCGGGCG,0.111
24,ACCCGTAT,0.0066
25,GCGTCTAC,-0.0829

row,Sequence,PBM E-score
1,AGATTCTA,-9e-05
2,AATTAAAC,0.0285
3,CAAAGTAC,-0.303
4,CACGAATA,-0.202
5,AGGCTTAG,-0.152
6,GCAAGGAA,0.035
7,AGATGGGC,0.115
8,TAGTAATA,-0.158
9,ACTACCAT,-0.233
10,ACTAGGGA,-0.13
11,AAGCTTAT,-0.103
12,AACAACAC,-0.0906
13,AAGAGACT,-0.101
14,CCATTCGG,0.107
15,CTCGGTAA,0.0905
16,AGATATCT,-0.165
17,CGAAACCA,-0.0177
18,ACCGATAT,0.0583
19,CATCAATA,-0.128
20,AACATTAC,-0.106
21,CGAACCCG,0.224
22,CAATAGGA,-0.115
23,ACAAACGC,0.0734
24,ACGCCGAA,0.336
25,GTTAAGTA,-0.13

row,Sequence,PBM E-score
1,CTCATATA,-0.0765
2,CGCATCCC,0.0915
3,AATATCGA,-0.0141
4,CACGGGAG,-0.0623
5,CAGCCGAA,0.0307
6,ACGGGCCT,0.117
7,CGCCGGTA,0.352
8,AAACTATT,0.0142
9,GATCCGGC,0.407
10,CGCGAAAC,0.165
11,CGTACGTA,-0.212
12,AGCGCAGA,-0.072
13,GCATTCCA,-0.0889
14,ATGGTGAA,0.056
15,AAAACTAA,-0.0865
16,CTGATGCA,-0.168
17,ATGAATCC,-0.0186
18,ATCTTTAG,-0.0697
19,CCACTCGG,0.134
